# Measurements reported in the supplement of paper PMC8728848.
# The list shows a part of the results.
# B1: PX14343B-bfa-546-20-546 (Bacteroides fragilis) (protein)
# chain: CDLERYPLTDLSEETFWNSESNAELALTSLYRGSLTDGVEYNPSDWWSYHGMIMMEHLSDNAFDRRGENNPFFKISSGNLTADNAFIKRYWETSYKRIGYCNRFLVGIQNSSESEKKTRMIAEARFLRATQYFYLASYFKNVPLVENVLTGEEANNVTKTSQADILKWCVTEFTAAAADLPRFSAIPAGEAGRACKQAALAFLGRTCMLQKDWKSGAKAFHDIMELGDNAINANYQELFYPSTGTSNKENIFYIQYLENYLGTGLPQHALSAKDGGWSLVNPAADLYESYEFKDGTPFSYDDPRYDPSNLGKDRDPRLDYTIYYNGAIFMGTEYKMSPDYSAAKKEKLDYTSEASRTGFMMRKYFEESTPINDVQSANGLTPVIRYAEVLLGYLECLVEDNQTITQGILDETINAVRGRASVNMPPVTEVTPAKLREIVRHERRIELAMEGIRYWDIMRWGIAHEVLSQKIWGAPYPGSTQYATTTKEVDPTGNYRWYVGKRAFRNPTDYTWPIPQSEQNINPNLRD
# Key:
# Test in all cases: glycan array binding signal (z-score within array); higher = stronger binding
# Settings in all cases: glycan notation: IUPAC condensed, linker removed
# [1] = molecular target: GlcNAc(b1-2)[GlcNAc(b1-4)]Man(a1-3)[GlcNAc(b1-4)][GlcNAc(b1-2)[GlcNAc(b1-6)]Man(a1-6)]Man(b1-4)GlcNAc(b1-4)GlcNAc
# How it was run: (§1)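 The binding signal is a Z-score computed within each array and averaged over linkers. Arrays of the same protein sequence at different concentrations or buffers were also averaged together. Data originate from 3228 arrays in the Consortium for Functional Glycomics database, kept only where the protein sequence was available.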
# [2] = molecular target: GlcNAc(b1-2)[GlcNAc(b1-4)]Man(a1-3)[GlcNAc(b1-4)][GlcNAc(b1-2)[GlcNAc(b1-6)]Man(a1-6)]Man(b1-4)GlcNAc(b1-4)[Fuc(a1-6)]GlcNAc
# How it was run: as §1
# [3] = molecular target: GlcNAc(b1-2)[GlcNAc(b1-6)]Man(a1-6)[GlcNAc(b1-2)Man(a1-3)]Man(b1-4)GlcNAc(b1-4)GlcNAc
# How it was run: as §1
# [4] = molecular target: GlcNAc(b1-2)[GlcNAc(b1-6)]Man(a1-6)[GlcNAc(b1-2)Man(a1-3)]Man(b1-4)GlcNAc(b1-4)[Fuc(a1-6)]GlcNAc
# How it was run: as §1
# [5] = molecular target: GlcNAc(b1-2)[GlcNAc(b1-6)]Man(a1-6)[GlcNAc(b1-4)][GlcNAc(b1-2)Man(a1-3)]Man(b1-4)GlcNAc(b1-4)GlcNAc
# How it was run: as §1
# GlcNAc(b1-3)Fuc = molecular target: GlcNAc(b1-3)Fuc
# How it was run: as §1
# GlcNAc(b1-3)Gal = molecular target: GlcNAc(b1-3)Gal
# How it was run: as §1
# [6] = molecular target: GlcNAc(b1-3)Gal(b1-3)GalNAc
# How it was run: as §1
# GlcNAc(b1-3)Gal(b1-4)Glc = molecular target: GlcNAc(b1-3)Gal(b1-4)Glc
# How it was run: as §1
# [7] = molecular target: GlcNAc(b1-3)Gal(b1-4)GlcNAc
# How it was run: as §1
# [8] = molecular target: GlcNAc(b1-3)Gal(b1-4)GlcNAc(b1-2)Man(a1-3)[GlcNAc(b1-3)Gal(b1-4)GlcNAc(b1-2)Man(a1-6)]Man(b1-4)GlcNAc(b1-4)GlcNAc
# How it was run: as §1
# [9] = molecular target: GlcNAc(b1-3)Gal(b1-4)GlcNAc(b1-2)Man(a1-3)[GlcNAc(b1-3)Gal(b1-4)GlcNAc(b1-2)Man(a1-6)]Man(b1-4)GlcNAc(b1-4)[Fuc(a1-6)]GlcNAc
# How it was run: as §1
# [10] = molecular target: GlcNAc(b1-3)Gal(b1-4)GlcNAc(b1-2)[GlcNAc(b1-3)Gal(b1-4)GlcNAc(b1-6)]Man(a1-6)[GlcNAc(b1-3)Gal(b1-4)GlcNAc(b1-2)Man(a1-3)]Man(b1-4)GlcNAc(b1-4)GlcNAc
# How it was run: as §1
# [11] = molecular target: GlcNAc(b1-3)Gal(b1-4)GlcNAc(b1-3)Gal(b1-4)GlcNAc
# How it was run: as §1
# [12] = molecular target: GlcNAc(b1-3)Gal(b1-4)GlcNAc(b1-3)Gal(b1-4)GlcNAc(b1-2)Man(a1-3)[GlcNAc(b1-3)Gal(b1-4)GlcNAc(b1-3)Gal(b1-4)GlcNAc(b1-2)Man(a1-6)]Man(b1-4)GlcNAc(b1-4)GlcNAc
# How it was run: as §1
# [13] = molecular target: GlcNAc(b1-3)Gal(b1-4)GlcNAc(b1-3)Gal(b1-4)GlcNAc(b1-2)Man(a1-3)[GlcNAc(b1-3)Gal(b1-4)GlcNAc(b1-3)Gal(b1-4)GlcNAc(b1-2)Man(a1-6)]Man(b1-4)GlcNAc(b1-4)[Fuc(a1-6)]GlcNAc
# How it was run: as §1
# [14] = molecular target: GlcNAc(b1-3)Gal(b1-4)GlcNAc(b1-3)Gal(b1-4)GlcNAc(b1-2)[GlcNAc(b1-3)Gal(b1-4)GlcNAc(b1-3)Gal(b1-4)GlcNAc(b1-6)]Man(a1-6)[GlcNAc(b1-3)Gal(b1-4)GlcNAc(b1-3)Gal(b1-4)GlcNAc(b1-2)Man(a1-3)]Man(b1-4)GlcNAc(b1-4)[Fuc(a1-6)]GlcNAc
# How it was run: as §1
# [15] = molecular target: GlcNAc(b1-3)Gal(b1-4)GlcNAc(b1-3)Gal(b1-4)GlcNAc(b1-3)Gal(b1-4)GlcNAc(b1-2)Man(a1-3)[GlcNAc(b1-3)Gal(b1-4)GlcNAc(b1-3)Gal(b1-4)GlcNAc(b1-3)Gal(b1-4)GlcNAc(b1-2)Man(a1-6)]Man(b1-4)GlcNAc(b1-4)GlcNAc
# How it was run: as §1
# [16] = molecular target: GlcNAc(b1-3)Gal(b1-4)GlcNAc(b1-3)Gal(b1-4)GlcNAc(b1-3)Gal(b1-4)GlcNAc(b1-2)Man(a1-3)[GlcNAc(b1-3)Gal(b1-4)GlcNAc(b1-3)Gal(b1-4)GlcNAc(b1-3)Gal(b1-4)GlcNAc(b1-2)Man(a1-6)]Man(b1-4)GlcNAc(b1-4)[Fuc(a1-6)]GlcNAc
# How it was run: as §1
# [17] = molecular target: GlcNAc(b1-3)Gal(b1-4)GlcNAc(b1-3)Gal(b1-4)GlcNAc(b1-3)Gal(b1-4)GlcNAc(b1-2)[GlcNAc(b1-3)Gal(b1-4)GlcNAc(b1-3)Gal(b1-4)GlcNAc(b1-3)Gal(b1-4)GlcNAc(b1-6)]Man(a1-6)[GlcNAc(b1-3)Gal(b1-4)GlcNAc(b1-3)Gal(b1-4)GlcNAc(b1-3)Gal(b1-4)GlcNAc(b1-2)Man(a1-3)]Man(b1-4)GlcNAc(b1-4)[Fuc(a1-6)]GlcNAc
# How it was run: as §1
# [18] = molecular target: GlcNAc(b1-3)Gal(b1-4)GlcNAc(b1-3)Gal(b1-4)GlcNAc(b1-3)Gal(b1-4)GlcNAc(b1-3)Gal(b1-4)GlcNAc(b1-2)Man(a1-3)[GlcNAc(b1-3)Gal(b1-4)GlcNAc(b1-3)Gal(b1-4)GlcNAc(b1-3)Gal(b1-4)GlcNAc(b1-3)Gal(b1-4)GlcNAc(b1-2)Man(a1-6)]Man(b1-4)GlcNAc(b1-4)GlcNAc
# How it was run: as §1
# [19] = molecular target: GlcNAc(b1-3)Gal(b1-4)GlcNAc(b1-3)Gal(b1-4)GlcNAc(b1-3)Gal(b1-4)GlcNAc(b1-3)Gal(b1-4)GlcNAc(b1-2)Man(a1-3)[GlcNAc(b1-3)Gal(b1-4)GlcNAc(b1-3)Gal(b1-4)GlcNAc(b1-3)Gal(b1-4)GlcNAc(b1-3)Gal(b1-4)GlcNAc(b1-2)Man(a1-6)]Man(b1-4)GlcNAc(b1-4)[Fuc(a1-6)]GlcNAc
# How it was run: as §1
# [20] = molecular target: GlcNAc(b1-3)Gal(b1-4)GlcNAc(b1-3)Gal(b1-4)GlcNAc(b1-3)Gal(b1-4)GlcNAc(b1-3)Gal(b1-4)GlcNAc(b1-2)[GlcNAc(b1-3)Gal(b1-4)GlcNAc(b1-3)Gal(b1-4)GlcNAc(b1-3)Gal(b1-4)GlcNAc(b1-3)Gal(b1-4)GlcNAc(b1-6)]Man(a1-6)[GlcNAc(b1-3)Gal(b1-4)GlcNAc(b1-3)Gal(b1-4)GlcNAc(b1-3)Gal(b1-4)GlcNAc(b1-3)Gal(b1-4)GlcNAc(b1-2)Man(a1-3)]Man(b1-4)GlcNAc(b1-4)[Fuc(a1-6)]GlcNAc
# How it was run: as §1
# [21] = molecular target: GlcNAc(b1-3)Gal(b1-4)GlcNAc(b1-3)Gal(b1-4)GlcNAc(b1-3)GalNAc
# How it was run: as §1
# [22] = molecular target: GlcNAc(b1-3)Gal(b1-4)GlcNAc(b1-3)GalNAc
# How it was run: as §1
# [23] = molecular target: GlcNAc(b1-3)Gal(b1-4)GlcNAc(b1-3)[GlcNAc(b1-3)Gal(b1-4)GlcNAc(b1-3)]GalNAc
# How it was run: as §1
# [24] = molecular target: GlcNAc(b1-3)Gal(b1-4)GlcNAc(b1-6)[Gal(b1-3)]GalNAc
# How it was run: as §1
# [25] = molecular target: GlcNAc(b1-3)Gal(b1-4)GlcNAc(b1-6)[GlcNAc(b1-3)Gal(b1-3)]GalNAc
# How it was run: as §1
# [26] = molecular target: GlcNAc(b1-3)Gal(b1-4)GlcNAc(b1-6)[GlcNAc(b1-3)]Gal(b1-4)GlcNAc
# How it was run: as §1
# GlcNAc(b1-3)GalNAc = molecular target: GlcNAc(b1-3)GalNAc
# How it was run: as §1
# GlcNAc(b1-3)Man = molecular target: GlcNAc(b1-3)Man
# How it was run: as §1
# [27] = molecular target: GlcNAc(b1-3)[GlcNAc(b1-4)][GlcNAc(b1-6)]GlcNAc
# How it was run: as §1
# [28] = molecular target: GlcNAc(b1-3)[GlcNAc(b1-6)]Gal(b1-4)GlcNAc
# How it was run: as §1
# [29] = molecular target: GlcNAc(b1-3)[GlcNAc(b1-6)]GalNAc
# How it was run: as §1
# [30] = molecular target: GlcNAc(b1-4)Gal(b1-4)GlcNAc
# How it was run: as §1
# GlcNAc(b1-4)GlcNAc = molecular target: GlcNAc(b1-4)GlcNAc
# How it was run: as §1
# [31] = molecular target: GlcNAc(b1-4)GlcNAc(b1-4)GlcNAc
# How it was run: as §1
# [32] = molecular target: GlcNAc(b1-4)GlcNAc(b1-4)GlcNAc(b1-4)GlcNAc(b1-4)GlcNAc
# How it was run: as §1
binder,measurement,setting,value
B1,glycan array binding signal (z-score),[1],-0.13
same,glycan array binding signal (z-score),[2],-0.13
same,glycan array binding signal (z-score),[3],-0.117
same,glycan array binding signal (z-score),[4],-0.122
same,glycan array binding signal (z-score),[5],-0.106
same,glycan array binding signal (z-score),GlcNAc(b1-3)Fuc,-0.12
same,glycan array binding signal (z-score),GlcNAc(b1-3)Gal,-0.132
same,glycan array binding signal (z-score),[6],-0.115
same,glycan array binding signal (z-score),GlcNAc(b1-3)Gal(b1-4)Glc,-0.13
same,glycan array binding signal (z-score),[7],-0.127
same,glycan array binding signal (z-score),[8],-0.128
same,glycan array binding signal (z-score),[9],-0.114
same,glycan array binding signal (z-score),[10],-0.093
same,glycan array binding signal (z-score),[11],-0.122
same,glycan array binding signal (z-score),[12],-0.095
same,glycan array binding signal (z-score),[13],-0.115
same,glycan array binding signal (z-score),[14],-0.118
same,glycan array binding signal (z-score),[15],-0.116
same,glycan array binding signal (z-score),[16],-0.109
same,glycan array binding signal (z-score),[17],-0.11
same,glycan array binding signal (z-score),[18],-0.122
same,glycan array binding signal (z-score),[19],-0.127
same,glycan array binding signal (z-score),[20],-0.118
same,glycan array binding signal (z-score),[21],-0.128
same,glycan array binding signal (z-score),[22],-0.132
same,glycan array binding signal (z-score),[23],-0.111
same,glycan array binding signal (z-score),[24],-0.124
same,glycan array binding signal (z-score),[25],-0.112
same,glycan array binding signal (z-score),[26],-0.13
same,glycan array binding signal (z-score),GlcNAc(b1-3)GalNAc,-0.129
same,glycan array binding signal (z-score),GlcNAc(b1-3)Man,-0.128
same,glycan array binding signal (z-score),[27],-0.102
same,glycan array binding signal (z-score),[28],-0.121
same,glycan array binding signal (z-score),[29],-0.118
same,glycan array binding signal (z-score),[30],-0.129
same,glycan array binding signal (z-score),GlcNAc(b1-4)GlcNAc,-0.129
same,glycan array binding signal (z-score),[31],-0.124
same,glycan array binding signal (z-score),[32],-0.123
